# Over roughly 33,000 sequences, “E-score (dimensionless, -0.5 to 0.5)” has its median near -0.058; the highest 2% begin near 0.35. Some of the results follow.
# System: MvaT
# Assay: PBM 8-mer E-score (mean of HK and ME arrays) (E-score (dimensionless, -0.5 to 0.5)); higher = stronger relative binding preference; most listed sequences are background and not binding sites
# Procedure, shortened: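 Full-length P. aeruginosa MvaT, with glutathione S-transferase fused to its N-terminus (cloned into pTH6838 by isothermal assembly), was tested by protein binding microarray using a previously described protocol. Two universal double-stranded 60-mer arrays (ME and HK) were used, each with a constant 25-mer primer region and a variable 35-mer region covering all 8-mers. The rank-based 8-mer E-score (-0.5 to 0.5) is the mean of the two arrays, parsed with a custom Python script.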
row,Sequence,PBM 8-mer E-score
1,CCGCAGAC,-0.181
2,CGTTTTTC,0.0732
3,ATTAAGGG,0.205
4,GAGTCAAC,-0.213
5,AAGGATAT,0.165
6,TGAGTGCA,-0.183
7,AAGAAGGA,-0.186
8,AATTAGGA,0.0771
9,AATTTTTA,0.34
10,AACACCCG,0.00525
11,ACACCGCA,-0.047
12,CCCGCAAG,-0.138
13,GCCTGCGA,-0.156
14,CGTGTTTA,0.152
15,CGCGGACA,-0.0919
16,CGCTTTAC,-0.101
17,AACGGGGA,-0.0679
18,GCCAAGGA,-0.241
19,CTGTTAGC,-0.0149
20,GCGGGAGA,-0.251
21,GCAATTGA,0.182
22,TCATCCAA,0.0567
23,AATGAACT,0.148
24,CAGTATAG,0.0504
25,AAAGATGA,0.215

row,Sequence,PBM 8-mer E-score
1,CACACGGC,-0.249
2,ACTAAATC,0.135
3,CGCGCGCC,-0.318
4,CAAAACGC,-0.105
5,CAATCACC,-0.0923
6,AAGATGAC,0.0274
7,AGATTGAG,0.0741
8,GGAAGTGA,-0.0751
9,AAAAGCTG,0.0083
10,ACAAACAT,0.306
11,CGAACGGA,-0.271
12,CACATGAC,-0.0215
13,AATAATGT,0.408
14,ACACGGGT,-0.00739
15,ATTCAGTA,0.103
16,ATGTCTTA,0.181
17,CCAGCTAA,-0.0731
18,CCAGAGTC,-0.0329
19,GTAACGCA,0.0117
20,GACCGGCA,-0.0452
21,GTGATGAA,-0.0288
22,ACCTACAC,0.0215
23,GTAATGCA,0.255
24,TCCCAAGA,-0.125
25,GACCCGGA,-0.112

row,Sequence,PBM 8-mer E-score
1,CCAAGTGC,-0.0358
2,GGAATCAA,0.0726
3,ACACGCCC,-0.0817
4,GACATGGC,-0.23
5,CATACCCG,-0.127
6,GAGTACAA,0.138
7,CCCGAGCA,-0.181
8,CGGACAAC,-0.0812
9,ATAGTGAA,0.168
10,AAGTCGGT,0.101
11,GCGCTAAA,0.122
12,GTTCGTTA,0.0979
13,CGATTTAG,0.0547
14,GGCACTAC,-0.0989
15,GAGTCGCC,-0.26
16,ACTATTCC,0.149
17,ATGTGCGG,-0.158
18,GGTACTGA,0.00299
19,CGGTTGAG,-0.119
20,GGCGTTGA,-0.0479
21,CAACACAG,-0.0835
22,GTTACTGA,0.0954
23,GGCCGAGA,-0.189
24,TGCTGGAA,-0.0509
25,ACCTTGCC,-0.104

row,Sequence,PBM 8-mer E-score
1,ACGCCAAC,0.0447
2,AGAACACG,-0.104
3,AACGCGTA,0.0628
4,CGCGTTTC,0.0432
5,AGCGGTGC,-0.243
6,GATATTAC,0.293
7,AGGTGTAG,-0.0839
8,CATGCAGA,-0.0592
9,AATCGTAT,0.0883
10,CTAGGCTA,-0.149
11,AGCGGCAC,-0.0827
12,AAATATTC,0.363
13,GGGTAACC,-0.246
14,CGAGTAAA,0.0642
15,GTCTGGGA,-0.0677
16,AAATAGAA,0.31
17,CCCTTGGC,-0.27
18,CATCCCTA,-0.147
19,CCTACTGC,-0.194
20,GTCTACAC,-0.00201
21,ACCGGAAG,-0.217
22,AGAGCTAT,0.0206
23,AATATCCG,0.223
24,GTCAGTAA,-0.0177
25,AACTAACA,0.292

row,Sequence,PBM 8-mer E-score
1,CGAGCGAC,-0.19
2,AAGCATCT,-0.142
3,AGTAACCA,0.169
4,AACCACTC,0.00691
5,ACAATTGT,0.0806
6,ACCTATGA,-0.207
7,CCCTATCA,-0.0873
8,AACTTTTC,0.277
9,AGGGCCGG,-0.262
10,AACTGGGC,-0.00796
11,AAGTAGGG,0.129
12,CAACCTAC,-0.0561
13,AACATCCC,2.53e-05
14,GGGACGCA,-0.117
15,AATTGACC,0.0124
16,CGCACTAG,-0.119
17,CTATCCCC,-0.0545
18,CAGTATTA,0.289
19,ACGAGAAT,-0.0739
20,AAACTGCA,0.0716
21,CGCTCTAG,-0.234
22,CAGGACGA,-0.15
23,AGGTTCCC,-0.281
24,ACAGAATA,0.151
25,GAATACAC,0.0136

row,Sequence,PBM 8-mer E-score
1,GCTGTTCA,-0.192
2,AGGTTACA,0.103
3,GCAAGTGA,-0.158
4,TAGGACAA,0.0864
5,GCCACCTA,-0.169
6,AATCCAAA,0.11
7,CCCGTGGC,-0.26
8,AATTCACG,0.156
9,CATGGGCA,-0.125
10,GTGCAGCA,-0.0501
11,GTACCCCA,-0.136
12,CTACGTCC,-0.0884
13,ACAGGGCT,-0.196
14,GGGCTTAC,-0.2
15,AAGGTGTG,-0.0805
16,CCCCTCAA,-0.277
17,ACGTAGCC,-0.145
18,ATTTAAGA,0.239
19,ACATTACC,0.113
20,ATTAGCCA,0.137
21,ACAGGAAA,0.0933
22,ACCTCGAA,0.00765
23,ACATGATA,0.253
24,CCGGGGAC,-0.288
25,GTCTATCA,-0.0338

row,Sequence,PBM 8-mer E-score
1,CCGAACTC,-0.0908
2,AGTGCAGG,-0.183
3,GGCTGTCA,-0.28
4,ACAGGGAG,-0.284
5,AGCGGAAA,-0.0159
6,ACTCTCAT,0.165
7,CCATGTAA,0.171
8,AGATACCA,-0.00766
9,TAAGGCAA,0.2
10,ATACCTTA,0.217
11,AGTCATTG,0.0326
12,CCACGGCA,-0.0512
13,TCAGGCCA,-0.254
14,AGTGTTAG,0.0623
15,AGAGATTA,0.102
16,CATAGGAG,0.0253
17,ACTAACCA,0.00276
18,GCGCCTAA,-0.067
19,ACCCGACG,-0.308
20,AAATCCTA,0.0983
21,AGAACCGG,-0.0968
22,ACGCCTCC,-0.266
